Experimental data as given in the supplement of paper PMC3334620.
The full ranking holds about 33,000 sequences; the median of “E-score (-0.5 to 0.5)” is about -0.054, and the highest 2% start at about 0.35. This is one part of the list.

Target: T1, Stb5 (UniProt P38699)
T1 sequence: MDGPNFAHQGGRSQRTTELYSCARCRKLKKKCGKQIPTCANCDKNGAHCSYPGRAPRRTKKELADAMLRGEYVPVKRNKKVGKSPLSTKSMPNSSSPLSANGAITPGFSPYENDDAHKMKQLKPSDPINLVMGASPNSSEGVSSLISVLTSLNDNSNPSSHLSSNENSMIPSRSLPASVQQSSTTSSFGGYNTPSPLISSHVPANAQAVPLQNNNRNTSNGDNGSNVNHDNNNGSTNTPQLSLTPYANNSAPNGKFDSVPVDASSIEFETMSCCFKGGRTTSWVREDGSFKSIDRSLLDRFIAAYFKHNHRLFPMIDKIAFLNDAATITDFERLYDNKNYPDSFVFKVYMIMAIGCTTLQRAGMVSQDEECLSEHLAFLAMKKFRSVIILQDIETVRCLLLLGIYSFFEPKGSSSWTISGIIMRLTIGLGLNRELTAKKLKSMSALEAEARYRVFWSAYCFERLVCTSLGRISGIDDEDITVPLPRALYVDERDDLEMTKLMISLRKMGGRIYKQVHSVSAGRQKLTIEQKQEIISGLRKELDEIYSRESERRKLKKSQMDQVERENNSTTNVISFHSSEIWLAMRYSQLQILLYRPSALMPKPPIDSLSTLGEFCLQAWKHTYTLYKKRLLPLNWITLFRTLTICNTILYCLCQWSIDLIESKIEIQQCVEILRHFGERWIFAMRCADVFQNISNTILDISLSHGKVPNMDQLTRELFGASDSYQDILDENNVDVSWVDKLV
Assay: PBM E-score (8-mer binding enrichment) (E-score (-0.5 to 0.5)); higher = stronger / more preferred TF binding; most listed sequences are background and not binding sites
Details: protein concentration: 200 nM; construct: GST-full length
Method in brief: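 Universal all-10-mer Agilent arrays, fresh or stripped once, were converted to double-stranded form by primer extension. GST-tagged yeast transcription factors from PURExpress in vitro transcription/translation, full-length or DNA-binding domain only, were applied at about 100-200 nM and detected with fluorescent anti-GST. After masliner normalisation, the Universal PBM Analysis Suite scored each ungapped eight-base word together with its reverse complement by E-score.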

Sequence | PBM E-score
AGCTGTGG | -0.0912
CGCTGTTC | 0.0181
CTGTTTGA | -0.104
GACTTCGC | 0.0143
CCCTAGAC | -0.138
AGTCCCTG | -0.203
AATGTAGG | -0.114
CAGAACAC | -0.0868
TAACTCTA | -0.0643
GCGCTAGA | 0.112
TCGCTAGA | -0.243
AAGGTTCA | -0.164
TGGCTTAA | -0.044
AGCACAGC | -0.0764
AAGAGTAT | -0.239
TTGGCCAA | -0.107
AGGCCGAC | 0.406
CAAATCCC | 0.194
AACAGGCT | -0.224
CACAAGAC | -0.161
CATATCCA | -0.193
CTGTCCGA | 0.201
ATGGATCA | -0.0964
CCTGTGGC | -0.0876
AAGCCTGG | -0.0397

Sequence | PBM E-score
CTAGTGAA | -0.0467
ATCCCCAC | 0.0244
ATGTCTTC | -0.142
CCAGGGAC | -0.161
ACCCAAAC | -0.0514
GCCATTCA | 0.153
AGCTGCGA | -0.117
GCTGATGA | -0.169
ATTCTTTG | -0.174
ATTAAGGA | 0.0825
CACGAGTC | -0.212
CTCTAATC | -0.0463
GACCGGAC | 0.387
CAGCGGAG | 0.352
ACCTTCGC | 0.136
CAACAGCA | 0.00701
AATCATAG | -0.154
ATATTGAA | -0.0371
CAAACGAG | -0.0052
AGCGCCCT | -0.00237
AAGAGGCC | 0.195
GTTCGTGA | -0.0803
AGTACGTA | -0.0603
CAAAGTGG | -0.254
GTGACCGA | 0.197

Sequence | PBM E-score
GACCGACC | 0.308
GGTAGACC | -0.1
ACGAAGCG | -0.0171
CTTGCGCC | 0.0443
CAGGTCCA | -0.0613
CCGACTAC | 0.292
ATCGACGA | -0.0527
CACCACTG | -0.274
TCTATTCA | -0.172
AGCGGTCA | 0.29
GGCTGACA | -0.00911
CATTCGGC | 0.194
CGTACATA | 0.0561
ACGAGAGG | -0.282
AATACAGA | -0.0777
TACTTCTA | -0.0933
GCGAATCC | -0.204
ACCCGACT | 0.219
AAGCCGAG | 0.0575
GACGCGAC | 0.0896
GTTTTGTA | -0.1
CTCTTGAC | -0.182
CTCCCTTC | -0.271
AACGGGTC | 0.182
AGCAAGAT | -0.0935

Sequence | PBM E-score
AATTACCG | 0.395
AACATTCG | -0.183
GTTCAGAA | -0.065
TACCTGAA | -0.0506
ACAGACCC | -0.00703
AGTGGATG | -0.19
AACAAGAA | -0.165
AAAGCCCG | 0.457
CTGCGCGC | 0.0757
GTATTACA | 0.167
AACTATCA | -0.114
CGGTGCCA | 0.414
ACGGCCTA | 0.176
AAAGGTGG | -0.216
TCCGCGCA | 0.2
AGATGGCA | -0.0856
ACTCAGAT | -0.0785
ACGATTAA | 0.0221
ACCTGAGC | -0.238
AAGATATA | 0.0715
ATCTATCA | -0.106
CTGCAACA | -0.0854
CCTGTGTA | -0.131
AGGGTGTC | -0.106
CAGGAGAG | -0.17

Sequence | PBM E-score
AGAGCAAA | -0.348
CCAAGAGG | -0.138
AGAGATAC | -0.00514
ATAGAATA | -0.0414
AAGGAGGC | -0.266
CAAGACCA | -0.276
CCCCCTCG | -0.272
GTCTGCTA | -0.0848
ATTATGGG | -0.0481
ACTTCTGC | -0.063
CATGACGC | 0.0269
CGTCGGCC | 0.324
ATGACAAG | -0.0607
GACTTGGC | -0.25
GAGCCTTA | -0.0515
GTACGTAC | 0.0373
GCAAAACA | -0.117
GTCATTCA | 0.0151
AATACTAT | 0.0224
CCCTCGAC | -0.0702
CGCGGGGA | 0.305
ACCCGTAA | 0.175
GAGACCTC | -0.145
CACGGTGA | 0.282
CTCGGCGC | 0.148

Sequence | PBM E-score
ACGCAATG | -0.0524
CGGCCATA | 0.376
CGCCATAG | 0.0546
ATAGCACC | 0.396
CAGCATAG | -0.0954
CAGAGTCG | -0.0674
AGGTCTTA | 0.0291
ATGTAAAG | -0.147
ACTTGTTG | -0.299
CTTACCCC | 0.222
CTCAGAAA | -0.225
AAGAGACG | 0.272
AGTACGCA | -0.101
CGGCTCTA | 0.391
ACCAATAT | -0.298
ATGTACCG | 0.274
AAGGAGTG | -0.106
CAGACTAA | -0.124
AACAGCAA | -0.168
ACCTCGCA | -0.0661
CGCCAAGC | 0.0121
ACACACGC | 0.0373
AACCGTGA | 0.125
ACACCAGG | -0.163
CTCGCTCC | -0.201

Sequence | PBM E-score
AAATCAAC | -0.141
ACGCGGGC | 0.281
AATACGCA | -0.249
AGGTATTC | -0.138
GTCGCCTA | -0.148
AGCGAGCA | -0.134
CCACGGAC | 0.187
CGAGCCAA | -0.184
GATTACAC | -0.00962
ATATTATC | 0.163
ACCTTCAC | -0.174
GCAAGGGA | -0.151
AGCGGGTG | 0.125
CATAGCCA | -0.1
AGTCGCTA | -0.244
CTAGGCCC | 0.193
CAAGTCCC | 0.00375
GTGGGACA | -0.101
ATCCTATA | -0.0861
ATGTCCAC | -0.0116
GACCGTAC | 0.0754
CACTGAAA | -0.221
CGATAATC | 0.119
ACGTCACC | 0.047
AAAAGAGC | 0.0536

Sequence | PBM E-score
CGTAACTA | -0.161
CGGTTTTC | 0.102
ATCGACAT | -0.0715
ATGTAGGA | -0.0464
AGTATATC | -0.0131
CGTTCGGC | 0.151
CGCATTAC | 0.0416
GCTGCACC | 0.0154
AACTGTAA | -0.0519
CCCGGAAC | 0.233
GAGGCCGC | 0.322
CTACCATC | -0.109
ATCTCATA | -0.186
AGAGCTTA | -0.131
CGGACCCG | 0.234
ACCTCATC | -0.248
CGGGCTTA | 0.473
AGTTGTTG | -0.186
CCTGCCTA | -0.299
CAGAGCGG | 0.264
ATATACTA | 0.0349
CCCGTGTA | 0.126
CCTGAGAA | -0.259
TCAGTCGA | -0.246
AAGAAACG | 0.111

Sequence | PBM E-score
GGATCCGA | 0.117
GGCTACCC | -0.137
GTTATGCA | -0.0691
ACCCGGAC | 0.229
AAAAAACA | 0.0316
ATTATCTA | -0.0957
GACATGTC | 0.0605
GAAGGCGA | -0.0276
ATCATACC | 0.155
GATATGGC | 0.00035
ATTTCATG | -0.28
ATTGAGTA | -0.188
CAGAAGGC | -0.0224
CGAAATGA | -0.00376
CCGGGAGG | 0.154
AGACAGAA | -0.216
CTGTTGGA | -0.152
GGAGACTA | -0.115
ACAGATGG | -0.21
